# Measured values taken from the supplement of paper PMC9135407.
# Several values for one entry are separate records, joined by “and”; a condition that tells them apart may be missing. Equal values may be shown once. Where a name gives a salt, the structure may show the parent alone. Screen size: about 5,800 compounds; about 620 (11%) showed activity.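 The calls were made as follows: active = score above a cut-off or among the top three wells of a plate; in these data no inactive exceeds 0.85.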 This is a selection; strong and weak results do not stand in their true shares.
# Test system: primary human hepatic stellate cells (donor 1)
# Assay: scaled lipid accumulation score (0 = DMSO-like, 1 = nortriptyline-like); higher = stronger HSC inactivation (lipid re-accumulation), active = hit call of the paper
# Conditions: 48 h
# [1] = library stock concentration: 10 mM
# [2] = library stock concentration: 80 uM
# [3] = library stock concentration: 400 uM
# [4] = library stock concentration: 2 mM
# [5] = library stock concentration: 3.33 mM
# [6] = library stock concentration: 1 mM
smiles,measurement,setting,value
O=C(O)C1=CC(=C(c2ccc(O)c(C(=O)O)c2)c2ccc(O)c(C(=O)O)c2)C=CC1=O [Aurintricarboxylic acid],scaled lipid accumulation score,[1],inactive: 0.544
CC1=CC(=O)c2ccccc2C1=O [Menadione],scaled lipid accumulation score,,active: 0.873
c1ccc2cc(C3=NCCN3)ncc2c1 [BU 226 hydrochloride],scaled lipid accumulation score,[1],inactive: ≤ -0.006
COc1ccc(N(C(=O)Nc2c(C)cccc2C)c2cc(Nc3ccc(N4CCN(C)CC4)cc3)ncn2)c(OC)c1,scaled lipid accumulation score,[2],inactive: ≤ -0.016
same,scaled lipid accumulation score,[3],inactive: 0.184
same,scaled lipid accumulation score,[4],inactive: 0.849
C[C@@H]1C/C=C/C=C/C=C/C=C/[C@H](O[C@@H]2O[C@H](C)[C@@H](O)[C@H](N)[C@@H]2O)C[C@@H]2O[C@](O)(C[C@@H](O)C[C@H]3O[C@@H]3/C=C/C(=O)O1)C[C@H](O)[C@H]2C(=O)O [Natamycin],scaled lipid accumulation score,library stock concentration: 3 mM,inactive: ≤ 0
same,scaled lipid accumulation score,[5],inactive: ≤ 0
same,scaled lipid accumulation score,[1],inactive: 0.082
CCC1=C[C@H]2CN(C1)Cc1c([nH]c3ccccc13)[C@@](C(=O)OC)(c1cc3c(cc1OC)N(C)[C@H]1[C@@](O)(C(=O)OC)[C@H](OC(C)=O)[C@]4(CC)C=CCN5CC[C@]31[C@@H]54)C2.O=C(O)C(O)C(O)C(=O)O,scaled lipid accumulation score,[1],active: 1.52
O=c1ccn([C@@H]2O[C@H](COP(=O)(O)OP(=O)(O)O)[C@@H](O)[C@H]2O)c(=O)[nH]1 [Uridine 5'-diphosphate sodium],scaled lipid accumulation score,[1],inactive: ≤ 0
CC(C(O)c1ccc(O)cc1)N1CCC(Cc2ccccc2)CC1 (centres undefined) [Ifenprodil],scaled lipid accumulation score,library stock concentration: 6.1 mM,inactive: 0.223
same,scaled lipid accumulation score,library stock concentration: 9.6 mM,inactive: 0.096
CC(C(O)c1ccc(O)cc1)N1CCC(Cc2ccccc2)CC1 (centres undefined) [Ifenprodil Tartrate],scaled lipid accumulation score,[5],inactive: ≤ 0
same,scaled lipid accumulation score,[1],inactive: 0.077
CC(C(O)c1ccc(O)cc1)N1CCC(Cc2ccccc2)CC1 (centres undefined) [Ifenprodil hemitartrate],scaled lipid accumulation score,[1],inactive: 0.45
CC(C(O)c1ccc(O)cc1)N1CCC(Cc2ccccc2)CC1 (centres undefined) [Ifenprodil tartrate],scaled lipid accumulation score,,inactive: 0.252
CC(C)[C@H](N)C(=O)OCCOCn1cnc2c(=O)nc(N)[nH]c21,scaled lipid accumulation score,[1],inactive: ≤ 0
CC(C)[C@H](N)C(=O)OCCOCn1cnc2c(=O)nc(N)[nH]c21 [Valacyclovir hydrochloride],scaled lipid accumulation score,[1],inactive: ≤ -0.027
CC(C)[C@H](N)C(=O)OCCOCn1cnc2c(=O)nc(N)[nH]c21 [Valaciclovir],scaled lipid accumulation score,library stock concentration: 6.2 mM,inactive: ≤ 0
CC(C)[C@H](N)C(=O)OCCOCn1cnc2c(=O)nc(N)[nH]c21 [Valaciclovir HCl],scaled lipid accumulation score,[5],inactive: ≤ 0
same,scaled lipid accumulation score,[1],inactive: ≤ 0
CC[C@H](NC(=O)[C@H](C)NC)C(=O)N1C[C@@H](O)C[C@H]1Cc1c(-c2[nH]c3cc(F)ccc3c2C[C@@H]2C[C@H](O)CN2C(=O)[C@H](CC)NC(=O)[C@H](C)NC)[nH]c2cc(F)ccc12 [Birinapant],scaled lipid accumulation score,[5],inactive: ≤ 0
same,scaled lipid accumulation score,[1],inactive: ≤ -0.001
CC(C)N(CC[C@H](c1ccccc1)c1cc(CO)ccc1O)C(C)C,scaled lipid accumulation score,[5],inactive: 0.012
same,scaled lipid accumulation score,[1],inactive: ≤ 0
COC(=O)N/N=C/c1c[n+]([O-])c2ccccc2[n+]1[O-] [Carbadox],scaled lipid accumulation score,library stock concentration: 7.6 mM,inactive: 0.074 and inactive: ≤ 0
same,scaled lipid accumulation score,[1],inactive: 0.05
CN1CCN(c2nc3cc(C(F)(F)F)ccc3n3cccc23)CC1.O=C(O)/C=C\C(=O)O,scaled lipid accumulation score,[1],active: 0.974
CN(C(=O)CN(CCO)CC(=O)N(C)C(C)(C)Cc1ccccc1)C(C)(C)Cc1ccccc1 [Oxethazaine],scaled lipid accumulation score,,inactive: 0.207
same,scaled lipid accumulation score,[1],inactive: ≤ -0.027
Cc1cc(C)nc(NS(=O)(=O)c2ccc(N)cc2)n1 [Sulfamethazine],scaled lipid accumulation score,[5],inactive: ≤ 0
same,scaled lipid accumulation score,library stock concentration: 7.2 mM,inactive: ≤ 0
same,scaled lipid accumulation score,[1],inactive: ≤ -0.001 and inactive: ≤ 0
Cc1cc(C)nc(NS(=O)(=O)c2ccc(N)cc2)n1 [Sulfamethazine sodium salt],scaled lipid accumulation score,,inactive: ≤ 0
CC1(C)O[C@@H]2C[C@H]3[C@@H]4C[C@H](F)C5=CC(=O)C=C[C@]5(C)[C@@]4(F)[C@@H](O)C[C@]3(C)[C@]2(C(=O)CO)O1 [Fluocinolone acetonide],scaled lipid accumulation score,library stock concentration: 4.4 mM,inactive: 0.002 and inactive: 0.008
CC1(C)O[C@@H]2C[C@H]3[C@@H]4C[C@H](F)C5=CC(=O)C=C[C@]5(C)[C@@]4(F)[C@@H](O)C[C@]3(C)[C@]2(C(=O)CO)O1 [Fluocinolone Acetonide],scaled lipid accumulation score,[5],inactive: ≤ 0
same,scaled lipid accumulation score,[1],inactive: ≤ 0
CCCCCCCC/C=C\CCCCCCCC(=O)O.NCCO,scaled lipid accumulation score,[1],inactive: 0.028
CC(C)=CCc1c2c(c3occ(-c4ccc(O)c(O)c4)c(=O)c3c1O)C=CC(C)(C)O2 [Pomiferin],scaled lipid accumulation score,[1],inactive: 0.384
COc1cc(NS(=O)(=O)c2ccc(N)cc2)ncn1 [Sulfamonomethoxine],scaled lipid accumulation score,,inactive: ≤ 0
same,scaled lipid accumulation score,library stock concentration: 7.1 mM,inactive: ≤ 0
same,scaled lipid accumulation score,[1],inactive: ≤ 0
Cc1nc(C(=O)NCC(=O)O)c(O)c2ccc(Oc3ccccc3)cc12,scaled lipid accumulation score,[5],inactive: ≤ 0
same,scaled lipid accumulation score,[1],inactive: ≤ 0
C=C1C(=O)OC2CC1C(OC(C)=O)C/C(C)=C/CC/C(C)=C/CC[C@]2(C)O (some centres undefined) [Crassin acetate],scaled lipid accumulation score,[1],active: 1.04
O=C1NC(=O)C(c2cnc3ccccn23)=C1c1cn2c3c(cc(F)cc13)CN(C(=O)N1CCCCC1)CC2,scaled lipid accumulation score,[2],active: 0.956
same,scaled lipid accumulation score,[1],active: 0.857
COc1cccc2c1C(=O)c1c(O)c3c(c(O)c1C2=O)C[C@@](O)(C(=O)CO)C[C@@H]3O[C@H]1C[C@H](N)[C@H](O[C@@H]2CCCCO2)[C@H](C)O1 [Pirarubicin],scaled lipid accumulation score,[5],inactive: 0.282
same,scaled lipid accumulation score,[1],inactive: 0.25
O=C(O)CCC/C=C/C[C@@H]1[C@@H](CC[C@@H](O)CCc2ccccc2)[C@H](O)C[C@@H]1O [5-trans Latanoprost (free acid)],scaled lipid accumulation score,[6],inactive: ≤ 0
CCCCCCCCCCCCCCC[C@@H](O)[C@H](CO)NC(=O)CCCCCCC [C8 Dihydroceramide],scaled lipid accumulation score,[6],inactive: ≤ -0.021
COc1cc(COc2cc(N)c(Cl)cc2C(=O)CCC2CCN(CCNS(C)(=O)=O)CC2)cc(OC)c1.Cl,scaled lipid accumulation score,[1],active: 1.06
CCCOc1ccccc1-c1nc2[nH]nnc2c(=O)[nH]1 [Zaprinast],scaled lipid accumulation score,,inactive: 0.03
same,scaled lipid accumulation score,[1],inactive: ≤ 0
same,scaled lipid accumulation score,library stock concentration: 18.4 mM,inactive: ≤ -0.021
CCCCCCNC(=O)n1cc(F)c(=O)[nH]c1=O [Carmofur],scaled lipid accumulation score,[5],inactive: ≤ 0
same,scaled lipid accumulation score,[1],inactive: ≤ 0 and inactive: 0.276
CS(=O)(=O)O.N=C(NC(=O)c1nc(Cl)c(N)nc1N)Nc1ccccc1 [Phenamil methanesulfonate],scaled lipid accumulation score,[1],active: 1.15
CC(C)=CCC1=C(O)C(=O)c2ccccc2C1=O [Lapachol],scaled lipid accumulation score,[1],inactive: ≤ 0
COc1cc2ncnc(Nc3cccc(Cl)c3)c2cc1OC [AG-1478 (Tyrphostin AG-1478)],scaled lipid accumulation score,[1],active: 1.07
CCN(CC)CC#CCOC(=O)C(O)(c1ccccc1)C1CCCCC1.Cl (centres undefined) [Oxybutynin Chloride],scaled lipid accumulation score,[1],active: 0.862
Cl.N/C(=N\C(=O)c1nc(Cl)c(N)nc1N)NCc1ccc(Cl)cc1Cl,scaled lipid accumulation score,library stock concentration: 11.8 mM,active: 0.876
CCC1(O)CC2CN(CCc3c([nH]c4ccccc34)[C@@](C(=O)OC)(c3cc4c(cc3OC)N(C=O)C3[C@]45CCN4CC=C[C@@](CC)([C@@H](OC(C)=O)[C@]3(O)C(=O)OC)[C@H]45)C2)C1.O=S(=O)(O)O (some centres undefined) [Vincristine sulfate],scaled lipid accumulation score,[1],active: 0.897
Nc1nc(=O)n([C@@H]2CS[C@H](CO)O2)cc1F [Emtricitabine],scaled lipid accumulation score,[5],inactive: 0.015
same,scaled lipid accumulation score,library stock concentration: 8.1 mM,inactive: ≤ -0.006
same,scaled lipid accumulation score,[1],inactive: ≤ 0
Cl.O=S(=O)(c1cccc2c(Cl)cccc12)N1CCCNCC1,scaled lipid accumulation score,[1],active: 0.935
COc1ccc(Cl)cc1C(=O)NCCc1ccc(S(=O)(=O)NC(=O)NC2CCCCC2)cc1 [Glybenclamide],scaled lipid accumulation score,[1],inactive: ≤ -0.07
COc1ccc(Cl)cc1C(=O)NCCc1ccc(S(=O)(=O)NC(=O)NC2CCCCC2)cc1 [Glibenclamide],scaled lipid accumulation score,,inactive: ≤ 0
same,scaled lipid accumulation score,[1],inactive: 0.007
COc1ccc(Cl)cc1C(=O)NCCc1ccc(S(=O)(=O)NC(=O)NC2CCCCC2)cc1 [Glyburide],scaled lipid accumulation score,[5],inactive: ≤ 0
same,scaled lipid accumulation score,library stock concentration: 4 mM,inactive: ≤ -0.006 and inactive: ≤ 0
same,scaled lipid accumulation score,[1],inactive: ≤ 0 and inactive: 0.016
CC#C[C@]1(O)CC[C@H]2[C@@H]3CCC4=CC(=O)CCC4=C3[C@@H](c3ccc(N(C)C)cc3)C[C@@]21C [Mifepristone],scaled lipid accumulation score,,inactive: 0.045
same,scaled lipid accumulation score,[6],inactive: 0.034
same,scaled lipid accumulation score,[5],inactive: ≤ 0
same,scaled lipid accumulation score,library stock concentration: 4.7 mM,inactive: ≤ 0
same,scaled lipid accumulation score,[1],inactive: ≤ 0 and inactive: 0.093 and inactive: ≤ -0.006
CC#C[C@]1(O)CC[C@H]2[C@@H]3CCC4=CC(=O)CCC4=C3[C@@H](c3ccc(N(C)C)cc3)C[C@@]21C,scaled lipid accumulation score,[1],inactive: ≤ 0
"COc1cc(SC)ccc1C(=O)N1CCC(Cc2ccccc2)CC1 [p38 MAP Kinase Inhibitor VI, JX401]",scaled lipid accumulation score,[5],inactive: ≤ 0
COc1cc(SC)ccc1C(=O)N1CCC(Cc2ccccc2)CC1,scaled lipid accumulation score,[1],inactive: 0.484 and inactive: ≤ -0.001
"CC(C)(C)c1cc(O)c(C(C)(C)C)cc1O [2,5-Ditertbutylhydroquinone]",scaled lipid accumulation score,library stock concentration: 22.5 mM,inactive: 0.463
CC(C)c1ccccc1S(=O)(=O)c1cc(N)c2ncccc2c1[N+](=O)[O-],scaled lipid accumulation score,[1],inactive: 0.26
Cc1ccc(S(=O)(=O)Nc2nc3ccccc3nc2Nc2ccc3nsnc3c2)cc1,scaled lipid accumulation score,[2],inactive: ≤ -0.009
same,scaled lipid accumulation score,[3],inactive: ≤ -0.009
same,scaled lipid accumulation score,[4],inactive: ≤ -0.009
same,scaled lipid accumulation score,[5],inactive: ≤ 0
same,scaled lipid accumulation score,[1],inactive: ≤ 0 and inactive: ≤ -0.009
